Results as given in the supplement of paper PMC9151546.
Single values are uncertain, as repeats are few or missing.

Experiments:
CHO-K1 [1] = assay: relative survival (nuclei to bead ratio vs DMSO control) (% of vehicle control); higher = more surviving cells
Procedure: (§1)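 Flow-cytometric in vitro micronucleus assay (Litron MicroFlow) in CHO-K1 cells in 96-well plates, 19 concentrations (4.5-200 µM, n=1 per concentration). Without S9, cells were exposed for 24 h and sampled at 48 h. With Aroclor 1254-induced rat liver S9, cells were exposed for 3-4 h and sampled at 27-28 h. Read-outs are %MN and %hypodiploid nuclei relative to nucleated events, and relative survival as the nuclei-to-bead ratio versus the 1% DMSO vehicle control (x100).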

CHO-K1 [2] = assay: micronucleus frequency (% of nucleated events); higher = more micronuclei (genotoxic)
CHO-K1 [3] = assay: hypodiploid nuclei frequency (% of nucleated events); higher = more hypodiploid events (aneugenic)
Procedure: as §1
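For hypodiploid nuclei frequency (% of nucleated events) in this document: hypodiploid nuclei gated on a flow cytometer with 488 nm excitation after SYTOX Green staining, cultures at 37 °C, positive controls vinblastine without S9 and cyclophosphamide with S9.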
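For micronucleus frequency (% of nucleated events) in this document: cells lysed with nuclei stained by SYTOX Green, then micronucleus-gated events counted against nucleated events by flow cytometry with 488 nm excitation.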
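For relative survival (nuclei to bead ratio vs DMSO control) in this document: Lysed-cell nuclei stained with SYTOX Green and counted against counting beads by flow cytometry at 488 nm excitation, with vinblastine (no S9) and cyclophosphamide (plus S9) as positive controls.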

O=C(O)c1ccc([N+](=O)[O-])cc1 [4-Nitrobenzoic acid]
Settings | hypodiploid nuclei frequency, CHO-K1 [3] [%] | micronucleus frequency, CHO-K1 [2] [%] | relative survival, CHO-K1 [1]
concentration: 4.5 (µM), S9 metabolic activation: with S9, exposure time: 3-4 hours | 0.16 | 0.84 | 102
concentration: 4.5 (µM), S9 metabolic activation: without S9, exposure time: 24 hours | 0.54 | 1.18 | 101
concentration: 5.63 (µM), S9 metabolic activation: with S9, exposure time: 3-4 hours | 0.08 | 1.38 | 89
concentration: 5.63 (µM), S9 metabolic activation: without S9, exposure time: 24 hours | 0.44 | 1.18 | 93
concentration: 7.04 (µM), S9 metabolic activation: with S9, exposure time: 3-4 hours | 0.16 | 1.2 | 97.1
concentration: 7.04 (µM), S9 metabolic activation: without S9, exposure time: 24 hours | 0.56 | 1.72 | 122
concentration: 8.8 (µM), S9 metabolic activation: with S9, exposure time: 3-4 hours | 0.3 | 0.92 | 94
concentration: 8.8 (µM), S9 metabolic activation: without S9, exposure time: 24 hours | 0.64 | 1.22 | 100
concentration: 11 (µM), S9 metabolic activation: with S9, exposure time: 3-4 hours | 0.16 | 0.9 | 120
concentration: 11 (µM), S9 metabolic activation: without S9, exposure time: 24 hours | 0.66 | 1.24 | 103
concentration: 13.7 (µM), S9 metabolic activation: with S9, exposure time: 3-4 hours | 0.22 | 1.04 | 116
concentration: 13.7 (µM), S9 metabolic activation: without S9, exposure time: 24 hours | 0.58 | 1.54 | 109
concentration: 17.2 (µM), S9 metabolic activation: with S9, exposure time: 3-4 hours | 0.22 | 0.92 | 119
concentration: 17.2 (µM), S9 metabolic activation: without S9, exposure time: 24 hours | 0.84 | 1.52 | 112
concentration: 21.5 (µM), S9 metabolic activation: with S9, exposure time: 3-4 hours | 0.2 | 1.1 | 111
concentration: 21.5 (µM), S9 metabolic activation: without S9, exposure time: 24 hours | 0.7 | 1.38 | 121
concentration: 26.8 (µM), S9 metabolic activation: with S9, exposure time: 3-4 hours | 0.12 | 0.96 | 122
concentration: 26.8 (µM), S9 metabolic activation: without S9, exposure time: 24 hours | 0.3 | 1.58 | 96
concentration: 33.6 (µM), S9 metabolic activation: with S9, exposure time: 3-4 hours | 0.1 | 0.98 | 115
concentration: 33.6 (µM), S9 metabolic activation: without S9, exposure time: 24 hours | 0.54 | 1.5 | 99.1
concentration: 41.9 (µM), S9 metabolic activation: with S9, exposure time: 3-4 hours | 0.2 | 0.9 | 112
concentration: 41.9 (µM), S9 metabolic activation: without S9, exposure time: 24 hours | 0.64 | 1.64 | 101
concentration: 52.4 (µM), S9 metabolic activation: with S9, exposure time: 3-4 hours | 0.18 | 0.72 | 117
concentration: 52.4 (µM), S9 metabolic activation: without S9, exposure time: 24 hours | 0.4 | 1.34 | 123
concentration: 65.5 (µM), S9 metabolic activation: with S9, exposure time: 3-4 hours | 0.08 | 1.18 | 127
concentration: 65.5 (µM), S9 metabolic activation: without S9, exposure time: 24 hours | 0.56 | 1.62 | 104
concentration: 81.9 (µM), S9 metabolic activation: with S9, exposure time: 3-4 hours | 0.08 | 0.86 | 133
concentration: 81.9 (µM), S9 metabolic activation: without S9, exposure time: 24 hours | 0.44 | 1.44 | 124
concentration: 102 (µM), S9 metabolic activation: with S9, exposure time: 3-4 hours | 0.14 | 1.12 | 130
concentration: 102 (µM), S9 metabolic activation: without S9, exposure time: 24 hours | 0.78 | 1.52 | 97
concentration: 128 (µM), S9 metabolic activation: with S9, exposure time: 3-4 hours | 0.18 | 1 | 150
concentration: 128 (µM), S9 metabolic activation: without S9, exposure time: 24 hours | 0.9 | 1.68 | 127
concentration: 160 (µM), S9 metabolic activation: with S9, exposure time: 3-4 hours | 0.1 | 1.08 | 144
concentration: 160 (µM), S9 metabolic activation: without S9, exposure time: 24 hours | 0.64 | 0.92 | 115
concentration: 200 (µM), S9 metabolic activation: with S9, exposure time: 3-4 hours | 0.32 | 0.88 | 138
concentration: 200 (µM), S9 metabolic activation: without S9, exposure time: 24 hours | 1.18 | 2.12 | 117

O=[N+]([O-])c1ccc(O)cc1 [4-Nitrophenol]
Settings | hypodiploid nuclei frequency, CHO-K1 [3] [%] | micronucleus frequency, CHO-K1 [2] [%] | relative survival, CHO-K1 [1]
concentration: 4.5 (µM), S9 metabolic activation: with S9, exposure time: 3-4 hours | 0.28 | 0.72 | 120
concentration: 4.5 (µM), S9 metabolic activation: without S9, exposure time: 24 hours | 3.52 | 1.34 | 119
concentration: 5.63 (µM), S9 metabolic activation: with S9, exposure time: 3-4 hours | 0.38 | 1.74 | 124
concentration: 5.63 (µM), S9 metabolic activation: without S9, exposure time: 24 hours | 2.06 | 1.66 | 105
concentration: 7.04 (µM), S9 metabolic activation: with S9, exposure time: 3-4 hours | 0.22 | 1.36 | 105
concentration: 7.04 (µM), S9 metabolic activation: without S9, exposure time: 24 hours | 1.42 | 1.3 | 93.5
concentration: 8.8 (µM), S9 metabolic activation: with S9, exposure time: 3-4 hours | 0.2 | 0.9 | 93.8
concentration: 8.8 (µM), S9 metabolic activation: without S9, exposure time: 24 hours | 1.36 | 2.18 | 96.9
concentration: 11 (µM), S9 metabolic activation: with S9, exposure time: 3-4 hours | 0.18 | 0.72 | 102
concentration: 11 (µM), S9 metabolic activation: without S9, exposure time: 24 hours | 0.96 | 1.84 | 92.9
concentration: 13.7 (µM), S9 metabolic activation: with S9, exposure time: 3-4 hours | 0.16 | 0.88 | 109
concentration: 13.7 (µM), S9 metabolic activation: without S9, exposure time: 24 hours | 1.24 | 2.14 | 119
concentration: 17.2 (µM), S9 metabolic activation: with S9, exposure time: 3-4 hours | 0.14 | 1.02 | 103
concentration: 17.2 (µM), S9 metabolic activation: without S9, exposure time: 24 hours | 1.02 | 1.86 | 130
concentration: 21.5 (µM), S9 metabolic activation: with S9, exposure time: 3-4 hours | 0.18 | 1.08 | 78.6
concentration: 21.5 (µM), S9 metabolic activation: without S9, exposure time: 24 hours | 0.8 | 1.54 | 104
concentration: 26.8 (µM), S9 metabolic activation: with S9, exposure time: 3-4 hours | 0.32 | 1.12 | 149
concentration: 26.8 (µM), S9 metabolic activation: without S9, exposure time: 24 hours | 1.06 | 0.96 | 65.4
concentration: 33.6 (µM), S9 metabolic activation: with S9, exposure time: 3-4 hours | 0.2 | 0.74 | 98.1
concentration: 33.6 (µM), S9 metabolic activation: without S9, exposure time: 24 hours | 0.68 | 0.78 | 62.1
concentration: 41.9 (µM), S9 metabolic activation: with S9, exposure time: 3-4 hours | 0.26 | 1.02 | 127
concentration: 41.9 (µM), S9 metabolic activation: without S9, exposure time: 24 hours | 1.1 | 1.24 | 72.7
concentration: 52.4 (µM), S9 metabolic activation: with S9, exposure time: 3-4 hours | 0.32 | 0.86 | 115
concentration: 52.4 (µM), S9 metabolic activation: without S9, exposure time: 24 hours | 1.02 | 0.9 | 79.7
concentration: 65.5 (µM), S9 metabolic activation: with S9, exposure time: 3-4 hours | 0.44 | 1.32 | 84.8
concentration: 65.5 (µM), S9 metabolic activation: without S9, exposure time: 24 hours | 1.16 | 1.2 | 61.6
concentration: 81.9 (µM), S9 metabolic activation: with S9, exposure time: 3-4 hours | 0.22 | 0.8 | 97.2
concentration: 81.9 (µM), S9 metabolic activation: without S9, exposure time: 24 hours | 1.48 | 1.4 | 74.4
concentration: 102 (µM), S9 metabolic activation: with S9, exposure time: 3-4 hours | 0.32 | 1.06 | 96
concentration: 102 (µM), S9 metabolic activation: without S9, exposure time: 24 hours | 1.24 | 1.7 | 67.1
concentration: 128 (µM), S9 metabolic activation: with S9, exposure time: 3-4 hours | 0.32 | 0.78 | 104
concentration: 128 (µM), S9 metabolic activation: without S9, exposure time: 24 hours | 1.5 | 1.46 | 65.4
concentration: 160 (µM), S9 metabolic activation: with S9, exposure time: 3-4 hours | 0.32 | 0.78 | 112
concentration: 160 (µM), S9 metabolic activation: without S9, exposure time: 24 hours | 1.36 | 1.9 | 59.5
concentration: 200 (µM), S9 metabolic activation: with S9, exposure time: 3-4 hours | 0.12 | 0.82 | 96.3
concentration: 200 (µM), S9 metabolic activation: without S9, exposure time: 24 hours | 1.36 | 1.98 | 68.3
